# Laboratory results as given in PubChem BioAssay (NCATS).
# Where “and” joins values, the source holds several entries; their conditions need not be identical. Equal entries are not always repeated. Inconclusive results, whose numbers are uncertain, are shown with a selection of clear calls. For some assays here: Potencies of inconclusive entries are doubtful fits and often do not repeat. For some assays here: A note “side channel” means that the fit belongs to a control or component signal, not to the main read-out. Calls of active or inactive are those of the source. Unless noted, calls come from the whole dose curve; as a rule, active = well fitted curve in the direction sought with a large enough effect; inconclusive = small, poorly fitted or top-dose-only effect, or another doubt; inactive = no such curve, though single readings can be large; an effect the other way counts as inactive or inconclusive.
# How the values were obtained:
# [1] = molecular target: ATPase family AAA domain-containing protein 5 (Homo sapiens) (UniProt Q96QE3); assay: Validation screen for small molecules that inhibit ELG1-dependent DNA repair in human embryonic kidney (HEK293T) cells expressing luciferase-tagged ELG1 (AID 493107); details: HEK293T ELG1-luciferase level, luminescence, 5-fluorouridine co-treatment, 16 h; series mostly up to 46.1 µM; note: nearly all actives have a fitted effect of over 70% in size; note: potency is the fitted concentration of half-maximal effect
# Procedure, shortened: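 Cells are dispensed in 1536-well format, then 5-fluorouridine and compound are pinned in. After a 16 hr incubation at 37 °C and 5% CO2, ONE-Glo is added and luciferase measured on a CCD imager.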
# [2] = Nrf2 qHTS screen for inhibitors: Validation (AID 493153; active = well fitted inhibition curve with a large enough effect in the main read-out, with a control signal flat, not every such curve was filed as active; inconclusive = small, poorly fitted or top-dose-only effect, or effect the other way, or a change in a side signal; inactive = no such curve, though single readings can be large or run the other way; note: potency is the fitted concentration of half-maximal effect;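 for activity change, negative = inhibition: A549 cells with ARE-driven firefly luciferase reporter reporting Nrf2 activity; % of control where 0% means no effect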); details: A549 ARE-Fluc reporter, luciferase luminescence, 18-24 h; series mostly up to 46.1 µM
# Procedure, shortened: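 A549 ARE_Fluc, 5% FBS OPTI-MEM; cpd titration, 18-24 h, 37°C/5% CO2. Read 1: CellTiter-Fluor (Ex 405/Em 525), cytotox. Read 2: luciferase lum, Nrf2 activity.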
# [3] = molecular target: Ubiquitin carboxyl-terminal hydrolase 1 (Homo sapiens) (UniProt O94782); assay: Inhibitors of USP1/UAF1: Pilot qHTS (AID 504865); details: purified USP1/UAF1, Ub-rhodamine cleavage fluorescence; series mostly up to 114 µM; note: potency is the fitted concentration of half-maximal effect;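 note: rhodamine fluorescence freed from ubiquitin-rhodamine substrate followed over time; nearly all actives have a fitted effect of over 35% in size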; for activity change, negative = inhibition: top concentration of the series differs between compounds; % is set by controls: 0 for no effect and ±100 for the full control effect
# Procedure, shortened: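 USP1/UAF1 complex at 1 nM preincubated 15 min at room temperature with compound, then Ub-Rho substrate added at 150 nM final. Fluorescence (480/540 nm) read kinetically in 50 mM HEPES pH 7.8, 0.5 mM EDTA, 1 mM TCEP, 0.1 mg/ml BSA, 0.01% Tween-20.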
# [4] = qHTS for Inhibitors of ATXN expression: Validation of Cytotoxic Assay (AID 588349); details: cytotoxicity counter-screen for ATXN expression inhibitors, cell viability; series mostly up to 57.1 µM; note: potency is the fitted concentration of half-maximal effect
# Procedure, shortened: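 Titrated compounds are added to cultured HEK293 cells, which are then held at 37 degrees C for 72 hr; loss of intracellular ATP, measured with CellTiter Glo, indicates toxicity.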
# [5] = qHTS for Inhibitors of ATXN expression: Validation (AID 588378); details: cell-based ATXN2 expression reporter assay, luminescence; series mostly up to 57.1 µM; note: potency is the fitted concentration of half-maximal effect; nearly all actives have a fitted effect of over 75% in size
# Procedure, shortened: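 HEK293 cells carrying ATXN2-firefly luciferase reporter, treated with compound 24 h at 37 °C. Viability read first by CellTiter-Fluor (405/525 nm), then reporter expression by Bright-Glo luminescence; controls were a known ATXN2 expression inhibitor and a luciferase inhibitor.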
# [6] = Inducers of the Endoplasmic Reticulum Stress Response (ERSR) in human glioma: Validation (AID 504836); details: human glioma cells, ER stress response reporter; at 38.3 µM (top of the series); note: 0% is about no effect
# Procedure, shortened: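 ERSR induction read as luciferase luminescence (Bright-Glo, 10 min at room temperature) in stably transfected human U87-MG glioma cells exposed to compounds for 16 h, using GRP78 as sensor.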
# [7] = molecular target: Estrogen receptor (Homo sapiens) (UniProt P03372); assay: qHTS assay for small molecule antagonists of estrogen receptor alpha signaling (AID 588513; active = well fitted curve in the direction sought with a large enough effect in the signal ratio, with a control signal flat, not every such curve was filed as active; inconclusive = small, poorly fitted or top-dose-only effect, or effect the other way, or a change in a side signal; inactive = no such curve, though single readings can be large or run the other way; the % refers to the signal ratio; note: potency is the fitted concentration of half-maximal effect; for activity, negative = inhibition: % is set by controls: 0 for no effect and ±100 for the full control effect); details: ER-alpha-UAS-bla HEK293, beta-lactamase ratio, antagonist mode; activity, negative = inhibition: at 76.9 µM (top of the series)
# Procedure, shortened: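 ER-alpha-UAS-bla GripTite HEK 293 cells in 2% charcoal/dextran-treated FBS medium; compounds titrated (1:2, duplicate), then stimulated with 0.5 nM 17-beta-estradiol for 18 h at 37C. CCF4 beta-lactamase fluorescence; Hill-fit IC50 and efficacy.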
# [8] = molecular target: Estrogen receptor (Homo sapiens) (UniProt P03372); assay: qHTS assay for small molecule agonists of estrogen receptor alpha signaling (AID 588514; calls by dose curve; note: nearly all actives have a fitted effect of over 70% in size; note: potency is the fitted concentration of half-maximal effect;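 for activation: 0% = vehicle only and 100% = reference agonist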); details: ER-alpha-UAS-bla HEK293, beta-lactamase ratio, 18 h; activation: at 76.8 µM (top of the series), percent of full estradiol response, vehicle zero
# Procedure, shortened: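 Efficacy is expressed against 20 nM 17-beta-estradiol (100%) and DMSO basal (0%); EC50 from Hill equation. Assay: beta-lactamase reporter in ER-alpha-UAS-bla HEK 293 cells, 18 h compound incubation, CCF4 detection.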
# [9] = molecular target: Bile acid receptor (Homo sapiens) (UniProt Q96RI1); assay: qHTS assay for small molecule agonists of farnesoid X receptor signaling (AID 588527; calls by dose curve;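 note: 0% = vehicle basal and 100% = reference agonist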); details: HEK293T FXR-UAS-bla, beta-lactamase ratio, 16 h; activation: stronger effect = higher value
# Procedure, shortened: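 Quantitative HTS used FXR-UAS-bla HEK293T cells with 16 h compound incubation at 37 C. EC50 values came from concentration-response curves normalized to chenodeoxycholic acid.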
# [10] = molecular target: Glucocorticoid receptor (Homo sapiens) (UniProt P04150); assay: qHTS assay for small molecule agonists of glucocorticoid receptor signaling (AID 588532; active = well fitted curve in the direction sought with a large enough effect in the signal ratio, with a control signal flat; inconclusive = small, poorly fitted or top-dose-only effect, or a change in a side signal; inactive = no such curve, though single readings can be large or run the other way; the % refers to the signal ratio; note: potency is the fitted concentration of half-maximal effect;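 for activation: 100% = dexamethasone at 0.1 µM and 0% = DMSO only wells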); details: HeLa MMTV-bla, beta-lactamase ratio, agonist, 18 h; activation: stronger effect = higher value, percent of dexamethasone control, DMSO zero
# Procedure, shortened: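 Agonist-mode qHTS: GRE-driven beta-lactamase in HeLa cells exposed 18 h to titrated compounds (up to 92 uM), then CCF4 ratio read after 2 h at RT; Hill-fitted EC50, efficacy relative to 0.1 uM dexamethasone.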
# [11] = molecular target: Glucocorticoid receptor (Homo sapiens) (UniProt P04150); assay: qHTS assay for small molecule antagonists of glucocorticoid receptor signaling (AID 588533; active = well fitted inhibition curve with a large enough effect in the signal ratio, with a control signal flat, not every such curve was filed as active; inconclusive = small, poorly fitted or top-dose-only effect, or effect the other way, or a change in a side signal; the % refers to the signal ratio;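 note: cells stimulated with 2 nM dexamethasone as agonist; potency is the fitted concentration of half-maximal effect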); details: HeLa MMTV-bla, GRE beta-lactamase ratio, antagonist mode, 18 h; activity change, negative = inhibition: at 76.8 µM (top of the series)
# [12] = molecular target: Peroxisome proliferator-activated receptor delta (Homo sapiens) (UniProt Q03181); assay: qHTS assay for small molecule agonists of peroxisome proliferator-activated receptor delta signaling (AID 588534; calls by dose curve; note: potency is the fitted concentration of half-maximal effect); details: HEK293T PPARdelta-UAS-bla, beta-lactamase ratio, 18 h; series mostly up to 76.7 µM
# Procedure, shortened: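 Agonist-mode qHTS; reporter cells, 5 hrs 37 C pre-incubation; compound titration, 18 hrs 37 C; CCF4 dye, 2 hrs RT; fluorescence read. EC50/efficacy via Hill fit.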
# [13] = molecular target: Peptidyl-prolyl cis-trans isomerase NIMA-interacting 1 (Homo sapiens) (UniProt Q13526); assay: qHTS Validation Assay to Find Inhibitors of Pin1 (AID 504536; active = well fitted inhibition curve with a large enough effect in the polarisation, with a control signal flat, not every such curve was filed as active; inconclusive = small, poorly fitted or top-dose-only effect, or effect the other way; the % refers to the polarisation; note: potency is the fitted concentration of half-maximal effect); details: Pin1 fluorescence polarization peptide binding assay; series mostly up to 57.5 µM
# Procedure, shortened: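 Fluorescence polarization competition: compounds (titration) displace HiFluor-488-labeled Pin1-1b peptide from Pin1 (0.3 uM final) in pH 7.5 HEPES buffer with DTT, 10 min at room temperature; %Activity normalized to no-enzyme wells, curves fitted.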
# [14] = Validation screen for small molecules that induce DNA re-replication in SW480 colon adenocarcinoma cells (AID 504364); details: DNA re-replication phenotype (high-content imaging); series mostly up to 46.1 µM; note: potency is the fitted concentration of half-maximal effect
# Procedure, shortened: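 Image-based qHTS: compounds were incubated with SW480 cells for 48 hr, nuclei stained with Hoechst, and per-nucleus fluorescence intensity scanned to flag cells with excess DNA content.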
# [15] = molecular target: Androgen receptor (Homo sapiens) (UniProt P10275); assay: qHTS assay for small molecule agonists of androgen receptor signaling (AID 588515; active = well fitted curve in the direction sought with a large enough effect in the signal ratio, with a control signal flat; inconclusive = small, poorly fitted or top-dose-only effect, or effect the other way, or a change in a side signal; inactive = no such curve, though single readings can be large or run the other way; the % refers to the signal ratio; note: % is set by controls: 0 for no effect and ±100 for the full control effect); details: AR-UAS-bla HEK293, beta-lactamase ratio, agonist 16 h; stronger effect = higher value
# Procedure, shortened: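 Stimulation of an AR-responsive β-lactamase reporter in GripTite HEK293 cells was measured after 16 h compound exposure at 37 °C, via CCF4 fluorescence after 2 h RT. EC50 from Hill fits, normalized to R1881 at 30 nM.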
# [16] = molecular target: Androgen receptor (Homo sapiens) (UniProt P10275); assay: qHTS assay for small molecule antagonists of androgen receptor signaling (AID 588516; active = well fitted curve in the direction sought with a large enough effect in the signal ratio, with a control signal flat, not every such curve was filed as active; inconclusive = small, poorly fitted or top-dose-only effect, or effect the other way, or a change in a side signal; inactive = no such curve, though single readings can be large or run the other way; the % refers to the signal ratio; note: % is set by controls: 0 for no effect and ±100 for the full control effect); details: AR-UAS-bla HEK293, beta-lactamase ratio, antagonist mode, 16 h; activity change, negative = inhibition: at 76.8 µM (top of the series)
# Procedure, shortened: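 Cells were plated and incubated 5 h, compounds added in titration, then R1881 (10 nM final) as agonist. After 16 h at 37 C, CCF4 substrate was loaded for 2 h at room temperature and fluorescence measured.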
# Tags give direction and shape of the fitted curve or compound fluorescence and quenching.
# Chain of UniProt Q03181 (Q03181 whole entry, looked up): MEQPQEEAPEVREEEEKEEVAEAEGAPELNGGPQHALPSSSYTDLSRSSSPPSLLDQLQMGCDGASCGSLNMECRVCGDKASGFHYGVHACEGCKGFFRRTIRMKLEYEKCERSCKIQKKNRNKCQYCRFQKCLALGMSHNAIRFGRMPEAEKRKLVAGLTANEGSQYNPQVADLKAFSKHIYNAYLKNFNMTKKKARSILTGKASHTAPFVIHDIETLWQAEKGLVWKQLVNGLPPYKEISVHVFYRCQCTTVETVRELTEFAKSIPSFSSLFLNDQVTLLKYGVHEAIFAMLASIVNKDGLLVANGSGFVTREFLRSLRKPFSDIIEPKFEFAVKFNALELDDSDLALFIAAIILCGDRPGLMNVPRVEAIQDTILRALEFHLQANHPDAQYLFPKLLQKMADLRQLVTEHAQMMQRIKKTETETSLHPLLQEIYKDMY
# Chain of UniProt P03372 (P03372 whole entry, looked up): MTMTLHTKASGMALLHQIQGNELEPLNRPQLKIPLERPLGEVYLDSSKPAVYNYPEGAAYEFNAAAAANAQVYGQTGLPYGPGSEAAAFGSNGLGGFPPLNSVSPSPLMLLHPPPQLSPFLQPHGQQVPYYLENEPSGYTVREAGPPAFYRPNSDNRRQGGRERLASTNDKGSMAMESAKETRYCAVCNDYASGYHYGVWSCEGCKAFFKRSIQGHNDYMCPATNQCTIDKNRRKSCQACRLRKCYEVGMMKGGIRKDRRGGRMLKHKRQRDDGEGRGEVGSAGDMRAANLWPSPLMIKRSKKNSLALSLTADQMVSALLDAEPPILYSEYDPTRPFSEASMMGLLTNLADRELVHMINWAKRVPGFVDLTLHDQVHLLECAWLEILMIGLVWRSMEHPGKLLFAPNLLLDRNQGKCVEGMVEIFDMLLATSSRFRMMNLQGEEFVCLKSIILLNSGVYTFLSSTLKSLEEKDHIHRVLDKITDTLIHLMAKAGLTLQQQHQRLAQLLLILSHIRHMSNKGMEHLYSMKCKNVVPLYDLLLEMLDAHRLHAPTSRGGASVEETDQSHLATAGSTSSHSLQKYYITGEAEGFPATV
# Chain of UniProt Q96QE3 (Q96QE3 whole entry, looked up, the tested form may be a part): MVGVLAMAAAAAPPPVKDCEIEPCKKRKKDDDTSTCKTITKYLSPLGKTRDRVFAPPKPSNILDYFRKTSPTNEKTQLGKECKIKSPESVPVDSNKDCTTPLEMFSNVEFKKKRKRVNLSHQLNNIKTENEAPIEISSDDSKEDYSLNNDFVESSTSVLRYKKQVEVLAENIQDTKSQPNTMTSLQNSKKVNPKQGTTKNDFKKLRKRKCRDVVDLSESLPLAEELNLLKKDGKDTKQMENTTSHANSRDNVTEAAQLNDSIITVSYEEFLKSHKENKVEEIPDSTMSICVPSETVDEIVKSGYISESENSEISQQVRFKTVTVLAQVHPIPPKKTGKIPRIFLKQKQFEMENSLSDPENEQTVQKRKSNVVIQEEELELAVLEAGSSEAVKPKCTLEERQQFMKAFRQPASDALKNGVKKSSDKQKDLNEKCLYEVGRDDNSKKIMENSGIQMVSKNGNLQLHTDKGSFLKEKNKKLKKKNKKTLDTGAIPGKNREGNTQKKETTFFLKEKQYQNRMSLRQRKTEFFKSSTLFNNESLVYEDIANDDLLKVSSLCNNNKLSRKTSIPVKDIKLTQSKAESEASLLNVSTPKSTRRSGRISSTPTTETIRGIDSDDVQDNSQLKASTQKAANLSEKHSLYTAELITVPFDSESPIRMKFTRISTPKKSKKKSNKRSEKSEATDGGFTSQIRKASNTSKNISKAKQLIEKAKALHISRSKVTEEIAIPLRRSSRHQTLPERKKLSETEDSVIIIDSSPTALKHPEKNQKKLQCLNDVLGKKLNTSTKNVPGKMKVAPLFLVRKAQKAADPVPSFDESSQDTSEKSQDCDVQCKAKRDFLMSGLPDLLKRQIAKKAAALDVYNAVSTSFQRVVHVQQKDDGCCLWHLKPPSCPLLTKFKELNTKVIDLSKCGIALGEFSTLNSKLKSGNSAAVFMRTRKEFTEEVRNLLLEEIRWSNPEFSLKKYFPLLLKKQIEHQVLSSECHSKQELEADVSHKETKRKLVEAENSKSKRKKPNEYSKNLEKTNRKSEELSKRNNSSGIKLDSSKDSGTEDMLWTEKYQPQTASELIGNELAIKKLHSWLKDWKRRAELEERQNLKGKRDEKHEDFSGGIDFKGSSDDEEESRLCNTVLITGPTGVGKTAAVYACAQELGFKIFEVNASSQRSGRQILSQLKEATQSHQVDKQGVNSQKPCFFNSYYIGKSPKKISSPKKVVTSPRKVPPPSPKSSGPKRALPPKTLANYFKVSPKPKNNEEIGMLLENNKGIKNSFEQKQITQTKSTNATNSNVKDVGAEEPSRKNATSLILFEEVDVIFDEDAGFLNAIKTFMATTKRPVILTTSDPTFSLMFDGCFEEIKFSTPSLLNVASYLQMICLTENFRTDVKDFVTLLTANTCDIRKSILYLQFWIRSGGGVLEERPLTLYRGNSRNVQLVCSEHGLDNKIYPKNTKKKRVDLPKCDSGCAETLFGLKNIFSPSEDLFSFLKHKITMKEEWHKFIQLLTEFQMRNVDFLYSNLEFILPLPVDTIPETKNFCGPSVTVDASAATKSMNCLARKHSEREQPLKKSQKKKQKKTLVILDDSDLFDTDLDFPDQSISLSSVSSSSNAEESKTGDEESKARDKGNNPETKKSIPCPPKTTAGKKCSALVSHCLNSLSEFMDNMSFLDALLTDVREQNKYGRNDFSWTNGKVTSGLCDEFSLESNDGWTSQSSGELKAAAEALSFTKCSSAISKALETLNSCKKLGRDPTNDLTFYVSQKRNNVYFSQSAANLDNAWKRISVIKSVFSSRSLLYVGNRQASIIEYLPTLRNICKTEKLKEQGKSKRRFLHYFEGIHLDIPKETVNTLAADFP
# Chain of UniProt O94782 (O94782 whole entry, looked up): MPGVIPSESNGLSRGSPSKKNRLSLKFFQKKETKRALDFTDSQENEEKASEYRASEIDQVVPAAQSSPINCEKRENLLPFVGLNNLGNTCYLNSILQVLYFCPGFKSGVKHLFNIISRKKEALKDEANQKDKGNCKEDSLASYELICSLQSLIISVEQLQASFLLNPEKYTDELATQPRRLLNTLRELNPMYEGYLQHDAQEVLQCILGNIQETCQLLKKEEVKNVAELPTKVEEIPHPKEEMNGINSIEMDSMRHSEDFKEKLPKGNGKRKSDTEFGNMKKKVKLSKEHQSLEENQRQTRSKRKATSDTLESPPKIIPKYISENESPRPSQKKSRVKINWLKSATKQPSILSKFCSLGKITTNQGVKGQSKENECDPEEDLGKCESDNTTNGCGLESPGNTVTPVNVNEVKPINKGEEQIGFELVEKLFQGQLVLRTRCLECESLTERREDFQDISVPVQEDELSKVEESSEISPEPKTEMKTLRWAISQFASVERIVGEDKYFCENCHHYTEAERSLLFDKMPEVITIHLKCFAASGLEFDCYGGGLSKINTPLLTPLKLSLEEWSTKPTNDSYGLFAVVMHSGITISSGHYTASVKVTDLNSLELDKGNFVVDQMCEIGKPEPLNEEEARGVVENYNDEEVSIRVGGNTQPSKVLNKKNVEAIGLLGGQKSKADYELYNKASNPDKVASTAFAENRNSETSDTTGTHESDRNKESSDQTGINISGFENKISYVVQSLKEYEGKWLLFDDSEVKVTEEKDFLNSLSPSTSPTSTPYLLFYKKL
# Chain of UniProt Q13526 (Q13526 whole entry, looked up): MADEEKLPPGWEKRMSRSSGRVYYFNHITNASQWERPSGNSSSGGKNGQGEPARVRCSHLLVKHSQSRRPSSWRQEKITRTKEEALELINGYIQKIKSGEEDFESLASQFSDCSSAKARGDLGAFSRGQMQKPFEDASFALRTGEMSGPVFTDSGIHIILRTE
# Chain of UniProt P10275 (P10275 whole entry, looked up): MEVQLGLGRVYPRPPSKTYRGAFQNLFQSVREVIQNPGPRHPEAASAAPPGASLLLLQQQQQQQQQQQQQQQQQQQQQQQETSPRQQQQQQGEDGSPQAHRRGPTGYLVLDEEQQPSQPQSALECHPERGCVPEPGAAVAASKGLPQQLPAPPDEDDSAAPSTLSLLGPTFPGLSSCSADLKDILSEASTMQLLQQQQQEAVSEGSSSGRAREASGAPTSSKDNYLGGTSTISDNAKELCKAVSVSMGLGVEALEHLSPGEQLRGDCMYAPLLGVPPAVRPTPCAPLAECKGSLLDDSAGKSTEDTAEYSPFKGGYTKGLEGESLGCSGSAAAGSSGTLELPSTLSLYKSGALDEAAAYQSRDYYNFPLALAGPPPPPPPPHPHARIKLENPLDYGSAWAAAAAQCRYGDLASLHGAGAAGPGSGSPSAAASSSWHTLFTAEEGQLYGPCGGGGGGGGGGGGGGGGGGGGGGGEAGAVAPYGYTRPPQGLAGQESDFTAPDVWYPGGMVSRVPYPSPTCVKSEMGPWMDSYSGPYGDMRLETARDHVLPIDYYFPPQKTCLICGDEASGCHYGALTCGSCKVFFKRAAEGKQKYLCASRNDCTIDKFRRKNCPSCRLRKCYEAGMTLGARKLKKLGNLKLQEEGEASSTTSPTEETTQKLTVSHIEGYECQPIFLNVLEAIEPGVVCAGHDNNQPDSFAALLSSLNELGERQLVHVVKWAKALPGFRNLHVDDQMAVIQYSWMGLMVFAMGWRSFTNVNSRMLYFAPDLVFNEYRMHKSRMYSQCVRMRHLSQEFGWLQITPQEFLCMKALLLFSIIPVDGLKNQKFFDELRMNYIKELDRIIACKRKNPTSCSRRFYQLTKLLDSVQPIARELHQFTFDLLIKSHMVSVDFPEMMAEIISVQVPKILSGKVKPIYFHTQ
smiles,measurement,setting,value
Cc1ccc(S(=O)(=O)N[C@@H](Cc2ccccc2)C(=O)CCl)cc1,Potency,[1],active: 14.6 µM
same,Potency,[2],"inconclusive: 18.4 µM [inhibitor, single point]"
same,Potency,[3],active: 44.7 µM
same,Potency,[4],active: 14.1 µM
same,Potency,[5],active: 22.4 µM
CCCCS(=N)(=O)CCC(N)C(=O)O (stereo unspecified),activation,[6],inactive: -5.61%
Cc1cnc(NC(=O)C2=C(O)c3ccccc3S(=O)(=O)N2C)s1,Potency,[1],inactive
COc1ccc2[nH]cc(CCNC(C)=O)c2c1,Potency,[1],"inconclusive: 29.1 µM [activator, single point]"
same,"activity, negative = inhibition",[7],inconclusive: 4.21%
same,Potency,[8],inactive
same,activation,[9],inactive: 0.0339% and inactive: -2.2% and inactive: -1.63%
CCN1CCCC1CNC(=O)c1cc(S(N)(=O)=O)ccc1OC (stereo unspecified),Potency,[1],"inconclusive: 3.26 µM [activator, full curve]"
COc1cc2nc(N3CCN(C(=O)C4COc5ccccc5O4)CC3)nc(N)c2cc1OC (stereo unspecified),Potency,[1],active: 23.1 µM
same,Potency,[3],"inconclusive: 11.2 µM [inhibitor, partial curve, poor fit]"
same,Potency,[4],"inconclusive: 14.1 µM [cytotoxic, single point]"
NC(=O)c1cnccn1,Potency,[1],"inconclusive: 23.1 µM [activator, partial curve]"
same,Potency,[3],"inconclusive: 39.8 µM [inhibitor, single point]"
same,activation,[10],inactive: -2.74% and inactive: -4.57%
same,Potency,[11],"inconclusive: 31.6 µM [activator, single point]"
same,Potency,[12],"inconclusive: 2.5 nM [side channel, falling, full curve, poor fit]"
Cc1cccc(CN2CCN(C(c3ccccc3)c3ccc(Cl)cc3)CC2)c1 (stereo unspecified),Potency,[3],"inconclusive: 39.8 µM [inhibitor, partial curve, poor fit]"
Clc1cccc(Cl)c1NC1=NCCN1,Potency,[2],inactive
same,Potency,[4],inactive
NCCCC(N)(C(=O)O)C(F)F (stereo unspecified),Potency,[2],"inconclusive: 1.46 µM [falling, full curve]"
CNC(=O)c1cc(Oc2ccc(NC(=O)Nc3ccc(Cl)c(C(F)(F)F)c3)cc2)ccn1,Potency,[3],"inconclusive: 14.1 µM [inhibitor, full curve]"
CC(C)(Sc1ccc(CCN(CCCCC2CCCCC2)C(=O)NC2CCCCC2)cc1)C(=O)O,Potency,[1],inactive
same,Potency,[2],"inconclusive: 11.6 µM [falling, partial curve]"
same,Potency,[13],"inconclusive: 26.9 µM [falling, single point]"
same,Potency,[3],active: 44.7 µM
same,Potency,[7],active: 15.8 µM [inhibitor]
same,Potency,[8],"inconclusive: 22.4 µM [side channel, rising, full curve]"
same,activation,[9],inconclusive: 37.4%
same,Potency,[10],"inconclusive: 28.2 µM [side channel, falling, partial curve, poor fit]"
same,Potency,[11],active: 20 µM
CCC(c1ccc(O)cc1)C(CC)c1ccc(O)cc1 (stereo unspecified),Potency,[3],"inconclusive: 50.1 µM [inhibitor, partial curve]"
Cc1oc(=O)oc1CN1CCN(c2cc3c(cc2F)c(=O)c(C(=O)O)c2n3C(C)S2)CC1 (stereo unspecified),Potency,[3],"inconclusive: 63.1 µM [inhibitor, partial curve, poor fit]"
CC(=O)O[C@H]1C(=O)[C@@]2(C)C([C@H](OC(=O)c3ccccc3)[C@]3(O)C[C@H](OC(=O)[C@H](O)[C@@H](NC(=O)c4ccccc4)c4ccccc4)C(C)=C1C3(C)C)[C@]1(OC(C)=O)CO[C@@H]1C[C@@H]2O (stereo partly specified),Potency,[1],"inconclusive: 0.0291 µM [inhibitor, full curve, poor fit]"
same,Potency,[14],active: 0.0092 µM
same,Potency,[13],"inconclusive: 37.9 µM [falling, single point]"
same,Potency,[4],"inconclusive: 2.24 µM [cytotoxic, partial curve]"
same,Potency,[5],"inconclusive: 0.316 µM [inhibitor, partial curve, poor fit]"
C[C@H]1O[C@@H](n2cc(F)c(=O)[nH]c2=O)[C@H](O)[C@H]1O,Potency,[2],"inconclusive: 23.1 µM [inhibitor, partial curve, poor fit]"
COc1ccc2c(c1)c(CC(=O)O)c(C)n2C(=O)c1ccc(Cl)cc1,Potency,[2],"inconclusive: 9.2 µM [inhibitor, partial curve, poor fit]"
same,Potency,[7],"inconclusive: 35.5 µM [fluorescent, side channel, partial curve, poor fit]"
same,activation,[15],inconclusive: -27.5%
same,"activity change, negative = inhibition",[16],inconclusive: -7.09%
same,Potency,[10],"inconclusive: 39.8 µM [side channel, rising, partial curve, poor fit]"
same,Potency,[12],"inconclusive: 12.6 µM [fluorescent, side channel, full curve] and inconclusive: 14.1 µM [fluorescent, side channel, full curve]"
Nc1c2c(nc3ccccc13)CCCC2,Potency,[1],"inconclusive: 14.6 µM [inhibitor, partial curve, poor fit]"
same,Potency,[13],"inconclusive: 0.19 µM [falling, full curve, poor fit]"
same,Potency,[5],"inconclusive: 15.8 µM [inhibitor, partial curve]"
Fc1ccc(C(c2ccc(F)cc2)N2CCN(CC=Cc3ccccc3)CC2)cc1,Potency,[3],"inconclusive: 15.8 µM [inhibitor, full curve, poor fit]"
NC(=NCc1ccccc1)NC(=O)c1nc(Cl)c(N)nc1N,Potency,[4],"inconclusive: 35.5 µM [cytotoxic, single point]"
CCC(C)(C)c1ccc(CC(C)CN2C[C@@H](C)O[C@@H](C)C2)cc1 (stereo partly specified),Potency,[3],"inconclusive: 50.1 µM [inhibitor, partial curve, poor fit]"
COC(=O)Nc1nc2ccc(C(=O)c3ccccc3)cc2[nH]1,Potency,[3],inactive
Cc1c(C(=O)NN2CCCCC2)nn(-c2ccc(Cl)cc2Cl)c1-c1ccc(Cl)cc1,Potency,[3],"inconclusive: 28.2 µM [inhibitor, full curve]"
